This is an account of results in the RNAGym collection of RNA variant scans (doi:10.7554/elife.90254).

To fix the notation:
B1: LINE1-full (parent)
chain: UACGUAGGUGGUUUUCCCCUGAUAGUGCUAAGGGGGCCUGGAAGUUUGGACUGGGCAGAGCUCAACACAGCGUGGCAAAGUGGCUGUGGCUAGACUGCCUCUCUGGAUUCCUCGUCACUCAGCAGGGCAUCUCUGAGAGAAAUGCC

Read counts are not given, so values of variants with three or more changes are uncertain.

The variants in the series derive from B1. Nature of the series: self-cleavage, relative activity (ratio to wild type); higher = more cleavage; in vitro, sequencing; the parent is a self-cleaving ribozyme.
For the variant A43G A65G A92G C111U U130C U143C, the self-cleavage came to 0.
With A43G C66G U119C A138C the figure was 0.11.
With A42G U46C C103U the figure was 1.88.
In the case of A42G A107U U132A, the self-cleavage was determined as 1.53.
With A42G U62C U104C the figure was 0; with A43G U46A A65G C99U, 0.02.
In the case of A43G C71A A117G A138G, the self-cleavage was 0.41.
With A43G A78G A79U A140U the figure was 1.08.
As for A43G A92C U112A C116U A140G A142G, the self-cleavage was found to be 0.11.
With A43G A79U U81C U85A A107G the figure was 0.
With A42G A78G G97U A124U, the self-cleavage was determined as 0.1.
Regarding A42G U119A U134C, the self-cleavage came out at 1.21.
With A42G U52A U85G the figure was 0.33; with U45A U85A U132C, 0.15; with A42G U96C A124G, 0.27.
With G44U G53A U115G the figure was 1.71; with A42G U73C U130C, 2.76.
With A42G U96C A136G the figure was 0.36; with A43U U46C A64G, 0.38; with A43G U62C A124C C131U A140G, 0.
Take U45C A64U A78G: the self-cleavage came out at 0.33.
With U45C A50U A78G A140G the figure was 0.4.
With A43U A67U A94G A129G the figure was 0.19.
Consider U45C A67G A77G, for which the self-cleavage was 0.
With A43G A59U A136C A138G the figure was 0.8; with A43G U52G U96A, 0.39; with A42G A77G U119C, 2.92.
With A42G U46C A78G U96A U143C the figure was 0.
As to A42G U62C A77C, the self-cleavage stood at 0.
Consider A43G U45C U47A A78U, for which the self-cleavage came to 1.09.
With A43G A124G U130A the figure was 0.8.
With A43G U96C A138U U143C the figure was 0; with A42G G74A A142G, 1.13; with A43G A77G G114A A140G, 2.45.
Regarding A43G C66U A92G, the self-cleavage worked out at 0.01.
Regarding A42G U47C U109A, the self-cleavage amounted to 1.02.
Consider U45C A78G A141G, for which the self-cleavage was 1.87.
With A43G A65G G126C the figure was 0; with A42G U73C A77U, 1.8.
With A43G U108C A117C the figure was 2.04; with A43G A64G U100C A142G, 0; with A42G U115A A136U, 1.85.
With A42G G72A U115C the figure was 1.83; with A43G U45A A79G G126A, 0.87.
Regarding A42U U46C U143C, the self-cleavage is 1.06.
For A42G U47C A69U C101U C120U U134C, the self-cleavage was 0.02.
With U45A G54A A69U U96A the figure was 0.02; with A43U U102C U104A, 1.27; with U45A A65U G122A, 0.05.
With U45A G80A A141G the figure was 1.85; with A43G U47A C84U A140G, 0.06; with A42U U96A A117U, 0.04.
With A43G A64U A65U G97A U134C the figure was 0.06; with A42G A67G G74U, 0.38.
As to A42G U52C A92G, the self-cleavage is 0.
With A43G G83A U87C A121G the figure was 0.14; with A43G A67G U102C A141G A142U, 0.
With A43G A64U U108C U134C the figure was 0.79; with A42G U85C U143C, 0.36; with A42U A94G A107G U115A, 0.14.
With A43U U102A U115C the figure was 1.86.
Consider A43G G83A A140U, for which the self-cleavage is 0.76.
With U45A U85C G93U U112A the figure was 0.08; with A43G U96A A121U, 0.02; with A43G G75A A117G, 1.09.
As for A42U U85C A94G, the self-cleavage worked out at 0.
With U45C A64U A67U A79G the figure was 0.08.
With A43G U81C U130C A136G the figure was 1.84; with A42G U115G A129G, 2.09; with A43G U52C U112C, 1.26.
With U45A A136U A142G the figure was 1.3.
As for U45A A77G U85C, the self-cleavage amounted to 0.16.
On to A43U A79C A94G A117G G127A, for which the self-cleavage came to 0.
With A43U U112C A117G A124G the figure was 0.
For the variant A42G U45A U100C, the self-cleavage is 2.12.
Take A42G U45A A69G C101U U134A: the self-cleavage came to 0.48.
For the variant A42G U52C A121U A129U U130C, the self-cleavage is 2.04.
With A43G U115C A142G the figure was 0.84; with A43G A57G A65G G144U, 0.51; with A42G U73C U96A, 0.11.
With A43G A94G U143A C145A the figure was 0.33; with A43G U91C G125U, 0.
With A43G A57G A136G the figure was 0; with A42G A69U U104C, 0.14.
As to U45A A57G A121U, the self-cleavage amounted to 0.84.
For A43G U52A C66U C84G, the self-cleavage was 0.16.
Regarding A43U C61G A65C G135U, the self-cleavage worked out at 0.18.
With G44U A57U U112C the figure was 0; with A42U U62A A94U A117G G126C, 0; with A43G G55A A124G, 0.05.
With A42G U47A A94U the figure was 0.17; with U45C A57U U108C G126A, 0.02.
With A42G U62C U102C the figure was 0.
Consider A42G G54U U108C, for which the self-cleavage is 1.43.
With A42G G74A U132A the figure was 0.55.
With U45A A65G U73C the figure was 0.19; with U45A C56U A140G, 0.05; with A43G U46C A64U U132C A138U, 0.69.
With A43G A57U A77U the figure was 0.12; with U45A U115C A141G, 0.66; with A43G A79G U102C U119C A142G, 0.
Turning to A42U U104C U143A, the self-cleavage was determined as 1.83.
With U45C A67U A92U U96C C145G the figure was 0; with A42U U47A U85A, 0.01.
With U45A A59G A129G A140C the figure was 0.32; with A42G C110A A140G, 1.03.
Turning to A43G A50U A67G A79C, the self-cleavage stood at 0.
For G44U A78G U143C, the self-cleavage turned out to be 1.17.
A43U A77U A138G: the self-cleavage stood at 1.45.
With A43G A77G U112C the figure was 1.19; with A42U C56U A124G C131U, 0.1; with A42G U62C U73A, 0.05.
With A43G A59G U102C the figure was 0; with U45A A107U A121U, 1.5; with U45C A67G A77U U81C, 0.
With A42G U62C U143A the figure was 0.07; with A42G A136G U143C, 1.89; with A43C A50G C56A, 0.15.
Consider A43G A67U U100C, for which the self-cleavage was found to be 0.12.
With A43C U87A A129G the figure was 0; with U45C A64C U73A A129U U134A, 0.1; with A42G A67G U115C, 1.53.
With A42G U62C U96A U130A U132A the figure was 0.03; with A42U G93A U96C U108A G144A, 0.04; with A43G A94U C128U, 0.18.
With A42G U45C C98A A124G the figure was 0.05.
For the variant A42U A65U U85C C90A U104G U115C, the self-cleavage came to 0.
With A43G A142G C145U the figure was 0.79; with U45A U104C U130A A141G, 1.15.
With A42U A69G A79G A121G A141G the figure was 0.57.
For A42G A67U A94G U130A, the self-cleavage was 0.09.
With A43G U47A U100A the figure was 1.1; with A43U A59G C71U, 0.04.
With A43G A67U A77G U130C the figure was 0; with A43G A69G A79G A124U, 0.
With U45A U102C U119C the figure was 2.45; with U45A U109A A141G, 2.07; with A42U C90A U134C C146U, 0.02.
On to G44A G105A U119C A136G A138G, for which the self-cleavage is 2.14.
With A42G A107G U115C the figure was 0; with U45C A50G U85C A94U A129G A141G, 0; with A43U A67G U132A, 0.57.
With A42G U104C U132C the figure was 1.31; with U45A U85C C95U U109C, 0.07; with A43G A50G C71U U100G U132C, 0.61.
On to U45A U46C U87A A138G, for which the self-cleavage is 0.14.
With A42G A67U G82U U143A the figure was 0.12; with A42U U52G A69U, 0.03; with U45A U46C U73A G114A, 1.47.
With A42G U47G G126U the figure was 1.19; with A42G U119C A140G, 1.31.
With A43G U96C U130C, the self-cleavage came to 0.13.
With A43G U46C A69G A141G G144A the figure was 0; with A43G U96A G139A, 0.13.
With A43G U62C G82A the figure was 0.04; with A42G U62C U108C, 0.08; with U45C A57G U143C, 1.39.
With A43G A107G G127U the figure was 1.15.
In the case of U45C A78U U108C U109A, the self-cleavage turned out to be 2.04.
With A43G U45A A57G the figure was 0.72; with A42U U100C A142G, 0.46; with A43G A50G A78G, 0.12.
With A42U U85A U96A the figure was 0.05.
With A43G U52C G72U A77U the figure was 1.07.
On to A43G U52A C110A, for which the self-cleavage worked out at 1.59.
As to A42G A67G G75A, the self-cleavage turned out to be 0.
With G44A G60A A78G U109C U134C the figure was 0.03.
